In the supplement of paper PMC10126150:
Sequences with one replicate were seen in a single cluster, so their values are uncertain.

Tested on: ATP
Test: switch fluorescence ratio, 500 uM ATP over buffer (Cy3 cluster intensity, sum of 5 cycles each) (fold (ratio)); higher = stronger signal-on switching upon ATP binding; sequences stand for … in TCGTCGGCAGCGTCAGATGTGTATAAGAGACAGTTTTTTTTTTTTTTTTTTTTTTTTT…TC
Settings: aptamer strand: ATP DNA aptamer (quencher-CACCTGGGGGAGTATTGCGGAGGAAGG + anchor), 100 nM annealed; ATP concentration: 500 uM; one replicate
Outline: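 Imaging in selection buffer was followed by imaging after 15 min with 500 uM ATP at 22 °C, for Cy3-labelled switching-strand clusters annealed to 100 nM quencher-labelled ATP aptamer on a modified Illumina MiSeq flow-cell. Five of these buffer/ATP cycles ran, separated by NaOH stripping and re-annealing. The fluorescence ratio per cluster is summed target-cycle over summed buffer-cycle Cy3 intensity, averaged per switch-domain sequence; clusters outside 100-1000 RFU were removed.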
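Further: ATP exposure 15 min at 22 °C before imaging.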

Sequence | switch fluorescence ratio
TGGGTATTG | 1.01
CATCCCCAAA | 2.19
TTGTAAGGTA | 1.02
GATGTCCTAA | 1.02
GGGTACGTTA | 1.12
TCCTAGGGT | 0.967
GTGATATCAG | 1.01
TCTCTACATC | 1.12
ATTTCCGCGT | 1.33
GGCGTGAGCT | 1.02
ATTCAGCTGT | 0.989
CAAAGTTGCC | 1.02
CTCTCATGAC | 1.9
ATCGCAAGCG | 1.12
TTCTTACTCA | 1.12
TTTTACGT | 1.02
TGGAGGCCGG | 0.927
GTTCACTTAT | 1.01
TGTCCCAAGA | 0.993
GTCTGAGTAG | 1.03
GAGGTGGCCG | 1.05
GAAGAATTTA | 0.991
AAACGGTGGG | 1.03
ATAGTGAGGG | 0.955
TGGATATTCG | 1.01
CGCATAAAGT | 1.05

Sequence | switch fluorescence ratio
ACATCCAGGG | 1.67
GGTTGACGAA | 1.06
GCACTTCTTG | 1.01
TGCCTGGAAG | 0.995
TAACCATGGA | 0.992
TTTACAATCC | 1.03
AATAGTGTTT | 0.972
TTTTTCGATC | 0.949
ACCTGAGGT | 1.03
GTCTTCGTTT | 0.969
GGAGCCTTTT | 0.965
CCGAGCCCTA | 1.61
GGCAAGGTGC | 1.09
TCGCCCGTCT | 0.932
GTCGAGGTAT | 1.09
GGTAACTCTG | 0.983
CTCGCATGCG | 1.01
TCCCAGCCCA | 0.978
AAGCCAAGGA | 0.982
GACGTATCTC | 1.05
CATGTATACC | 1.01
GACCGGCAAG | 1.06
CCTACCTGCT | 1.23
TGATCACGTT | 1.01
CTCAAGGA | 1.01
TGTTAAACTC | 0.977

Sequence | switch fluorescence ratio
TGAGCAAATA | 1.64
AGCCCGCCGT | 1.04
GTGGTTGGCG | 1.02
GGGTTCCC | 0.965
GGTCACTCAT | 0.963
ATGGTGGGCA | 0.977
GGGATAGCGA | 1.02
AGGTGTTGTC | 0.873
TTCCGTCTGT | 1
GGCTATTAGG | 1.02
CATGAGGA | 0.956
TAAGTGAGGA | 0.999
GTTTCAAAGG | 0.992
CGCGGTG | 0.972
CAGCGTTACA | 1.02
TAGGTCTTTT | 1.06
ACATGGCCCG | 1.07
ACACGCACTC | 1.58
CGCCGGCGAT | 0.992
CAACAGGAAG | 0.988
GACTCAGAGT | 0.999
GCTGAAGTCT | 0.976
AGCACTGTG | 1.01
TTTTTGTACC | 1.03
AACATATGGT | 1.03
TGTGATTAAT | 1.02

Sequence | switch fluorescence ratio
ACGATTACCT | 1.41
TACAGACGTC | 1.06
AGTGGGCGA | 1.02
CGTCAGAAGT | 1.01
TCAGTGCACA | 0.998
AAGGGCATG | 1
AATCCGTGGG | 1.01
TCGATACGTG | 1.02
GTGGCGATCT | 1
GTTCGGGTAA | 0.99
TGCCCCATTC | 0.997
AGTCCTGCGT | 0.974
GGATTAGGCA | 1.04
ATATACGGC | 0.978
CAGAATGACT | 0.986
TCGAATGGG | 1
CAGCGCTGA | 1.04
AGGTCGGTTG | 1.04
AGATAGTGGT | 0.974
AAACAGCCA | 1.02
GTGTTCCGCG | 1.02
TCAAGGACCA | 1.04
CGGTCGCCAT | 0.998
TACCTGTCGA | 1
ACTGGTTAAG | 0.979
TCATCATCAT | 1

Sequence | switch fluorescence ratio
GGAATGCAGA | 0.942
ACCCACATAT | 1.36
GCGTCTGGGT | 1.01
CACCTGTATT | 1.01
GGCTCACGTT | 1.03
CGATACCGGC | 0.964
AGTTGTAAAA | 0.984
TACTCGTGTG | 0.997
TAGGTATGGT | 0.996
GTTGCCGCT | 1.03
TCGTTGGCGA | 0.974
CGACTGAGTG | 1.02
AATATTGGAC | 0.997
CCGTTAGCGC | 3.39
AGCGGAGACT | 1.03
ACACTTAATA | 1.06
GTTATGTAAA | 0.969
CGAAACATAT | 1.07
CCGGGTATTC | 1.34
AATAGCGTCG | 1
ATCAGGCTAG | 1.01
ATCAGCCTGC | 1.08
GGTAGTTTCC | 1.08
ATGTGAGCAG | 0.981
AGATGAAA | 0.987
TCTTACTCTG | 1.26

Sequence | switch fluorescence ratio
GGGAACGACT | 0.967
TCGATCAAA | 1.01
AAGCCAGACC | 1.03
CACCTTGGTA | 0.984
GTGAGCACAA | 1.08
CCCTCCGTG | 3.31
GTTGGGAATC | 0.998
AAACTAGA | 1.02
ACTTTCGGAA | 1.15
AGTGCTCAGG | 1.06
ATGAAAGTGG | 0.955
CGATACGTCT | 1.58
AGGAGCAGTC | 1.15
CTGGTGTGCA | 0.997
GCGTTGTTGA | 0.987
CTTTAGAGGC | 1.12
CATGTGTGTT | 0.982
ACCCGAGCTG | 1.06
TAGCGTATGG | 1.06
AGTTCTTCA | 1.02
GAGGCACATT | 1.06
TAGGTGATAA | 1.03
TAGAATGTTA | 0.979
CATCAGCC | 1.27
TCGCTGTTCA | 1.01
ATACGATCTA | 0.979

Sequence | switch fluorescence ratio
AGGTTCAGCC | 1.02
GAAGTAAGTG | 0.968
GGAGAGATGC | 0.991
TCTATGTATG | 0.983
CGGAGGCTGC | 1.04
GCGGATTATG | 1.04
TCAAACCTGG | 1.17
CCAAGAGCTC | 1.01
AATACCCTTG | 1.04
TTGAGTTGGC | 0.989
GCGACGACAG | 1.03
CTAAGCACAT | 1.32
CTGCGAATGG | 1.26
GAATATTCGT | 1.03
GGTAAATACA | 1.03
TCATTGCGGT | 1
AGTCGAGTGT | 1
ACTTGATTGA | 0.98
CTGCCATCTC | 1.22
TGAAATAATA | 0.978
ATTATCGTCG | 0.991
CTTTACCAA | 1.03
TCCTTCATGT | 0.985
GGTTTGTTTT | 0.989
GGCGTGTTCA | 1
CGTGGCGTGA | 1.03

Sequence | switch fluorescence ratio
CACAGTGTGT | 1.06
TCAAGCTTGC | 0.97
TCTGAATTTG | 1.2
GTTTACCCAG | 1.01
AAGGCATTAA | 1.23
TGCTTGAAGG | 1.04
GTTTTATAGA | 1.01
GCGACGCTA | 2.98
TCGAAAAGAG | 1.01
GAAAATTCCG | 1.02
CGGATTTCTA | 0.997
TCGGGATGCA | 0.976
ACCCGTATGC | 1.3
GGTAATAGTC | 1.08
AGCACGATCT | 1.05
CTGGTGATC | 0.991
ATAAAGAGAC | 0.993
AGTACCTGTG | 1.02
AGTTAGGCGC | 1
